# The list shows a part of the results.
# Tested on: T1, C. trachomatis L2/434/Bu expressing GFP (CTL2-GFP)
# T1 construct: L2/434/Bu GFP intracellular growth in HeLa cells
# Set-up: species or system HeLa; C. trachomatis total inclusion area by high-content imaging, normalised to DMSO
# Conditions: total inclusion area; 28.5 h, 10 µM; inhibitor
# Summary of the method: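 Post-fluorescence-read fixation, DNA staining with Hoechst and high-content imaging; GFP inclusion area and number per well, and nuclei counts, used as proxies for bacterial growth and host viability.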
row,SMILES,% of control remaining
1,COc1ccc(/C=C/C(C)=C\C(=O)O)c(OC)c1 [CBK262237N],80.091
2,COc1ccc(C(C)C)cc1S(=O)(=O)NCCc1c(C)[nH]c2c(Cl)cccc12 [CBK266983],83.9316
3,COc1ccc(CCNCC2OCCCc3cc(OC)c(OC)cc32)cc1OC (stereo not drawn) [CBK012466C],74.533
4,O=C1NC2(CCC(=O)N(Cc3ccccc3)CC2)Nc2ccccc21 (stereo not drawn) [CBK284439],54.5992
5,CC1CCC(C(N)=O)CN1C(=O)c1csc(COc2ccc(Cl)cc2)n1 (stereo not drawn) [CBK304948],50.4055
6,CCCC/C=C/c1cnc2[nH]c(=O)n([C@H](C)c3ccccc3)c2n1 [CBK064182],108.041
7,COc1ccc(C(=O)NNS(=O)(=O)N(C)C)cc1OC [CBK267697],115.722
8,O=C(NNC(=S)NCC1CCCO1)c1cccnc1 (stereo not drawn) [CBK266842],101.741
9,O=C1CC(N(O)c2ccccc2)C(=O)N1c1ccc(F)cc1 (stereo not drawn) [CBK288419],89.8846
10,COc1ccc(N(C)C(=O)c2ccc(Cn3nc(NC(=O)Cc4ccc5c(c4)OCO5)c4ccccc43)cc2)cc1 [CBK059530],108.675
11,CCOc1ccc(Cc2nnnn2CC(=O)O)cc1 [CBK286677],108.958
12,O=C(O)CCC(=O)NNc1ccccc1[N+](=O)[O-] [CBK261546],102.465
13,CCOCCn1c(CN2CCOCC2)nc2c1c(=O)n(C)c(=O)n2C [CBK306062],60.3486
14,CCc1nc2c(OCC(=O)c3ccc(Cl)cc3Cl)cccn2c1N(C)C(=O)C1CC1 [CBK147712],97.1406
15,O=C(CN1C(=O)COc2ccc(Cl)cc21)Nc1cccc(C(=O)O)c1 [CBK269667],90.4585
16,O=c1c2sccc2nc2n1CCN(Cc1ccc(F)c(F)c1)CC2 [CBK282295],92.008
17,CN1CCN(Cc2c(O)ccc3c(=O)c(-c4ccc(Cl)cc4)coc23)CC1 [CBK263314],92.1121
18,Cn1c(=O)c2c(nc(N3CCOCC3)n2CC/N=C2/CCCCCN2)n(C)c1=O [CBK267708C],106.148
19,CC(=O)N1CCN(CCCC(c2ccc(F)cc2)c2ccc(F)cc2)CC1 [CBK024944C],6.561
20,CCN(CC)CCNC(=O)c1ccc(Nc2cncc(-c3ccc(O)cc3)n2)c(OC)c1 [CBK122659],32.943

row,SMILES,% of control remaining
1,Cc1cc(Cl)ccc1CNC(=O)c1ccc2[nH]ccc2c1 [CBK149048],96.5349
2,CS(=O)(=O)N(CC(=O)NCc1ccccn1)Cc1ccc(Cl)cc1 [CBK267982],96.0616
3,C/C(=N\OCC(=O)N(Cc1ccccc1)c1ccccc1C(=O)O)c1cccs1 [CBK077414],91.1227
4,CN1[C@@H](CCC(=O)NCc2ccc(F)cc2)CNC(=O)[C@@H]2[C@H]1CCN2C1CCOCC1 [CBK289023],101.601
5,CCCN(CCC)C(=O)c1ccc(NC(=O)CC)cc1 [CBK304391],13.6617
6,N#Cc1c(Nc2cccc(F)c2)sc2c(O)cc(=O)[nH]c12 [CBK270250],104.815
7,Cc1ccc(C)c2c(C)c(C(=O)NCC[S+](C)[O-])[nH]c12 (stereo not drawn) [CBK282484],123.993
8,O=C(NCc1ccccc1F)c1cccc(CN2C(=O)CSC2=O)c1 [CBK296730],90.5441
9,COc1cc(Nc2cccc3c2C(=O)c2ccccc2C3=O)c(OC)cc1C=O [CBK262677],106.232
10,Cn1nccc1C(=O)NC1CCN(CC2(c3ccccc3)CC2)CC1 [CBK285373],89.8412
11,CNCC1CCCN1S(=O)(=O)c1ccc(OCc2ncnn2C)cc1 (stereo not drawn) [CBK304500],59.6494
12,Cc1cccnc1C(c1ccccc1)N(C)C(=O)C1CCN(C(=O)NCc2ccccc2)CC1 (stereo not drawn) [CBK074119],88.7208
13,CCNC(=O)Nc1nn(Cc2ccc(OC)cc2)c2ccccc12 [CBK105837],107.977
14,Nc1ncncc1-c1ccc(Cl)cc1 [CBK012407],99.9632
15,NS(=O)(=O)c1ccc(NS(=O)(=O)c2ccc(NC(=O)C3CC3)cc2)cc1 [CBK264958],78.7191
16,CC(/C=C/c1ccc(N(C)C)cc1)=N\NC(=N)SC1CC(=O)N(c2ccc(C(=O)O)cc2)C1=O (stereo not drawn) [CBK262460],88.0901
17,O=C(c1cnccn1)N1C[C@@H]2OCC(=O)N(CC3CC3)[C@@H]2C1 [CBK289681],112.204
18,O=C(CSCc1ccc([N+](=O)[O-])cc1)Nc1ccc2c(c1)OCO2 [CBK264031],100.003
19,O=C(Cc1ccc([N+](=O)[O-])cc1)N/N=C/c1ccc(O)cc1 [CBK262152],98.5985
